# PubChem BioAssay AID1476 (National Center for Advancing Translational Sciences (NCATS), 2009)
# Out of some 200,000 compounds screened, about 4,500 (2.2%) were called active. This list was built around the results that the source calls inconclusive (neither active nor inactive); the mix of calls is not that of the screen. The call rests on the fitted dose curve; in most records, active means well fitted inhibition curve with a large enough effect; inconclusive means small, poorly fitted or top-dose-only effect, or effect the other way; inactive means flat fitted curve, though single readings scatter. Potencies of inconclusive entries are doubtful fits and often do not repeat.
# Target: Cruzipain (Trypanosoma cruzi) (UniProt P25779)
# Chain of UniProt P25779 (P25779 whole entry, looked up): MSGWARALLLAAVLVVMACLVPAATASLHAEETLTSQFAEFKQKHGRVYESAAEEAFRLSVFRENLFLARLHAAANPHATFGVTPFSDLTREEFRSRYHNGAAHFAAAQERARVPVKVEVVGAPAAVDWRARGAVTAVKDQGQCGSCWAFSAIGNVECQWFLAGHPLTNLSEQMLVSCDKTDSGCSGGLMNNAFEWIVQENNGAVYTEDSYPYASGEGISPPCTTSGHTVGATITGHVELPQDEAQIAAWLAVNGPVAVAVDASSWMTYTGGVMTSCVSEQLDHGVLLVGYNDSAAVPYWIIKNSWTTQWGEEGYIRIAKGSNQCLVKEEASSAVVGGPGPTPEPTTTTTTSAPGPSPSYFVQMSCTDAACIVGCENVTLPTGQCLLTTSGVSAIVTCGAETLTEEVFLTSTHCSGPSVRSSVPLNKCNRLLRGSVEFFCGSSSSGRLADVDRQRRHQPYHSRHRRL
# Test: qHTS Assay for Promiscuous and Specific Inhibitors of Cruzain (without detergent); further: nearly all actives have a fitted effect of over 40% in size;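 on max response, negative = inhibition: plate controls were enzyme without inhibitor for no effect and buffer without enzyme for full effect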
# Conditions: purified cruzain, Z-FR-AMC fluorescence, no detergent
# Method in brief: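 Detergent-free condition (0.00005% Triton X-100) in acetate buffer pH 5.5 with DTT. 1.5 nM enzyme and compound were pre-mixed 15 min, then 2 uM Z-FR-AMC substrate added; reaction progress from fluorescence change between first and third reads (60 s).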
# Potency means the concentration at half of the fitted maximal effect; tags describe the fitted curve by direction and shape.
Compound,"max response, negative = inhibition",Potency
CCOC(=O)c1ccc(NC(=O)Cn2ncc3c(C)n(Cc4ccccc4F)c(C)c3c2=O)cc1,inactive: 6.5%,
O=c1oc2c(CN3CCCC3)c(O)ccc2cc1-c1ccccc1,,"inconclusive: 31.6 µM [inhibitor, single point]"
O=C(COC(=O)c1cnccn1)c1ccc(OC(=O)c2ccccc2)cc1,,"inconclusive: 25.1 µM [inhibitor, single point]"
COc1cc(NC(=O)CN2C(=O)NC(C)(c3ccc4ccccc4c3)C2=O)c(C)cc1[N+](=O)[O-] (stereo not given),,active: 20 µM
Cc1cccc(Cn2c(=O)n(Cc3ccc4c(c3)OCO4)c(=O)c3oc4ccccc4c32)c1,inactive: 6.02%,
Cn1cc(-c2cc3n(n2)CCC(=O)N3CC(=O)NCc2ccc(Cl)cc2)c2ccccc21,,"inconclusive: 39.8 µM [activator, single point]"
CCN(c1ccccc1)S(=O)(=O)c1cccc(C(=O)OCc2nc3sc(C)c(C)c3c(=O)[nH]2)c1,,"inconclusive: 25.1 µM [inhibitor, partial curve, poor fit]"
CSc1ccc(/C=C/c2cc(=O)c3ccccc3[nH]2)cc1,,"inconclusive: 39.8 µM [inhibitor, single point]"
CCN(CCCNC(=O)c1cc(Nc2ccc(OC)cc2OC)nc2ccccc12)c1cccc(C)c1,,"inconclusive: 39.8 µM [inhibitor, single point]"
COc1ccc(OC)c(-n2c(=O)c3ccccc3c3ccccc3c2=O)c1,,"inconclusive: 39.8 µM [activator, single point]"
Cc1ccc(CCNC(=O)c2c(C)oc3nc(C)nc(N4CCOCC4)c23)cc1,inactive: -6.77%,
COC(=O)c1ccc2c(c1)N(Cc1nc(-c3cccc(C)c3)oc1C)C(=O)C1CCCN21 (stereo not given),,"inconclusive: 3.98 µM [inhibitor, partial curve]"
Cc1ccc(NC(=O)c2c(C)oc3ccc(O)c(CN4CCCCCC4)c23)cc1,,"inconclusive: 39.8 µM [inhibitor, single point]"
CCOC(=O)c1c(NC(=O)CSc2nc3ccccc3s2)sc(C(C)=O)c1C,inactive: -24.7%,
CC(C)S(=O)(=O)c1oc(-c2cccs2)nc1S(=O)(=O)c1ccc(F)cc1,inactive: -1.54%,
O=C(Nc1ccc(-c2nc3ccccc3[nH]2)cc1)c1ccccc1NS(=O)(=O)c1ccc(F)cc1,,active: 15.8 µM
CC(C)C(C)/C=C/C(C)C1CCC2C3=CC=C4CC(O)CCC4(C)C3CCC21C (stereo not given),,"inconclusive: 39.8 µM [activator, single point]"
COc1ccccc1-c1nnc(NC(=O)C(C)SC2=NCCS2)s1 (stereo not given),,active: 15.8 µM
Cc1c(CC(=O)NCCc2ccccc2F)c(=O)oc2cc(O)c(Cl)cc12,,"inconclusive: 5.01 µM [activator, partial curve, poor fit]"
COc1ccc(CC(=O)Nc2ccc3c(C(F)(F)F)cc(=O)oc3c2)cc1OC,,"inconclusive: 39.8 µM [activator, single point]"
CC/C(=C\C=C\[C@@H]1C=C[C@@H]2CCC[C@H]2[C@@H]1C(=O)c1ccc[nH]1)[C@@H]1O[C@@H]([C@@H](C)C(=O)O)CC[C@@H]1C,,"inconclusive: 31.6 µM [activator, single point]"
COc1ccc2[nH]c(C)c(CCN(Cc3cccs3)C(=S)Nc3cccc(F)c3)c2c1,,"inconclusive: 31.6 µM [inhibitor, single point]"

Compound,"max response, negative = inhibition",Potency
CCCC(=O)c1cc(O)c(O)cc1O,inactive: 16.5%,
Cc1cccc(N=C2NC(=O)/C(=C/C=C/c3ccco3)S2)c1C,,"inconclusive: 39.8 µM [activator, single point]"
CC(CNC(=O)C1CCN(S(=O)(=O)c2ccc3c(ccn3C)c2)CC1)c1ccccc1 (stereo not given),inactive: -1.79%,
Cn1c(=O)n(C)c2cc(NC(=O)CSc3nnc(-c4ccccc4O)n3-c3ccccc3)ccc21,,"inconclusive: 25.1 µM [activator, single point]"
Nc1nc(NCc2ccccc2)nc(Nc2ccc(F)cc2)c1[N+](=O)[O-],,active: 7.94 µM
CC1CCN(C(=O)CSc2nc3ccccc3nc2Cc2ccccc2)CC1,inactive: 4.44%,
Cc1ccccc1C(=O)N[C@H](C(=O)OCC(=O)c1ccc[nH]1)C(C)C,inactive: -16.3%,
O=C(CSc1ncc(S(=O)(=O)c2ccc(Br)cc2)c(=O)[nH]1)Nc1ccc2c(c1)OCCO2,,"inconclusive: 39.8 µM [activator, single point]"
CC(=O)NC(=S)Nc1ccc(NC(=O)c2cccs2)cc1,inactive: -10.3%,
COc1ccccc1CNC(=O)c1ccc2c(c1)N(Cc1c(F)cccc1Cl)C(=O)CS2,,"inconclusive: 39.8 µM [inhibitor, single point]"
CC(C)C(=O)Nc1ccc2nc(SCC(=O)N3CCc4ccccc43)sc2c1,inactive: 12%,
CC(C)C(=O)Nc1ccccc1C(=O)N/N=C/c1ccc([N+](=O)[O-])cc1,,"inconclusive: 25.1 µM [inhibitor, single point]"
COc1ccc(C(=O)COC(=O)CNC(=O)C2CCCCC2)c(OC)c1,,active: 6.31 µM
CCC(=O)N1CCc2cc(S(=O)(=O)Nc3cc(C)ccc3OC)ccc21,,"inconclusive: 39.8 µM [activator, single point]"
COc1ccc(/C=N/NS(=O)(=O)c2ccc(C)cc2)cc1OC(=O)c1ccc(C)cc1,,"inconclusive: 39.8 µM [inhibitor, single point]"
O=C(Nc1ccccc1)NC1(C(=O)NCc2ccco2)CCCCC1,,"inconclusive: 39.8 µM [inhibitor, single point]"
COc1cccc(NC(=O)Cn2cc(C(=O)c3ccco3)c3ccccc32)c1,,"inconclusive: 39.8 µM [activator, single point]"
CCn1nc(NC(=O)c2ccccn2)c2cc3cc(C)ccc3nc21,,"inconclusive: 31.6 µM [activator, single point]"
COc1ccc(/C=C/C(=O)Nc2ccc(OC)cc2[N+](=O)[O-])cc1,inactive: -6.79%,
O=C(NC(=S)N1CCCc2ccccc21)c1ccc([N+](=O)[O-])cc1,,"inconclusive: 31.6 µM [inhibitor, single point]"
COCCn1c(-c2ccco2)csc1=Nc1cccnc1,inactive: -0.238%,
COc1cccc(-n2c(=O)c3cc(OC)c(OC)cc3n(CC(=O)Nc3cc(C)[nH]n3)c2=O)c1,,"inconclusive: 6.31 µM [inhibitor, single point]"

Compound,"max response, negative = inhibition",Potency
CCOc1ccc(CN2C(=O)c3ccccc3C2C(=O)NCCc2ccc(OC)c(OC)c2)cc1 (stereo not given),,"inconclusive: 39.8 µM [activator, single point]"
Cc1ccc(NC(=O)c2nc[nH]c2C(=O)Nc2ccc(C)cc2)cc1,,active: 7.94 µM
CNc1ccc(Br)cc(C(=O)/C=C/c2cccc(OC)c2OC)c1=O,,"inconclusive: 39.8 µM [activator, single point]"
COc1ccc(CCNC(=O)c2ccc3c(c2)ncn3-c2ccc(C(C)C)cc2)cc1OC,inactive: 15.8%,
CC(C)c1ccc2occ(CC(=O)N(Cc3ccc(F)cc3)C3CCS(=O)(=O)C3)c2c1 (stereo not given),,"inconclusive: 7.94 µM [activator, full curve]"
CC(=O)c1ccc(N2CCN(C(=O)Nc3ccc(C(C)C)cc3)CC2)cc1,,"inconclusive: 25.1 µM [inhibitor, single point]"
Cc1ccc(-c2csc(NC(=S)NC(=O)/C=C/c3ccco3)n2)cc1,,"inconclusive: 39.8 µM [inhibitor, single point]"
CCCC(C)c1nnc(NC(=O)c2cc(C(=O)OC)cc([N+](=O)[O-])c2)s1 (stereo not given),inactive: -7.11%,
O=C(Nc1ccccc1)N(Cc1cccc(Cl)c1)c1ccccn1,inactive: 5.62%,
CCOC(=O)c1ccccc1NC(=O)CN(c1ccccc1OC)S(C)(=O)=O,,"inconclusive: 39.8 µM [activator, single point]"
CCC(=O)N1c2ccc(S(=O)(=O)CCC(=O)N3CCN(c4ccccc4)CC3)cc2CC1C (stereo not given),,"inconclusive: 39.8 µM [activator, single point]"
CC(=O)Nc1ccc(C(=O)OCc2ccc(Br)cc2)cc1,,"inconclusive: 31.6 µM [activator, single point]"
COc1ccc(NS(=O)(=O)c2ccc3[nH]c4c(c3c2)CCCCC4)cc1,,"inconclusive: 31.6 µM [inhibitor, partial curve, poor fit]"
COC(=O)c1sc2nc(SCc3cccc(Cl)c3)n(N)c(=O)c2c1C,,"inconclusive: 25.1 µM [inhibitor, partial curve, poor fit]"
CCCCN=C1C([N+](=O)[O-])=CC=C2C1=NC1(CCCCC1)N2O,,"inconclusive: 39.8 µM [inhibitor, single point]"
CC(=O)c1ccc(-n2c(-c3cc(-c4ccco4)[nH]n3)n[nH]c2=S)cc1,,"inconclusive: 12.6 µM [inhibitor, partial curve]"
Cc1ccc(C)n1CCN1CCN(CC(=O)Nc2cc(C(F)(F)F)ccc2Cl)CC1,,"inconclusive: 31.6 µM [activator, single point]"
COc1cccc(CNCCCSc2nnnn2C)c1OC,inactive: -1.64%,
CCN(CC)S(=O)(=O)c1ccc2c(c1)nc(SCC(=O)N1CCOCC1)n2-c1ccccc1OC,,"inconclusive: 20 µM [activator, single point]"
CCc1ccccc1NC(=O)Cn1ccn(Cc2ccccc2)c(=O)c1=O,inactive: 9.56%,
CCc1cccc(NC(=O)NC2CCCCC2)c1,inactive: -2.95%,
